{
  "source": "the supplement of paper PMC8728848",
  "binders": {"B1": {"name": "Fc-marm-DC-ASGPR-CRD (protein)", "chain": "ASCPINWVEHQGSCYWFSRSGKTWPEAERYCQLENTHLVVINSREEQNFVQAHLGSAYTWMGLSDPEGVWKWVDGTDYSSGFQNWKPGQPDDWQGHGLGGGEDCAHFHPDGRWNDDVCQRSYHWVCEAGLTQASQDSHT[in this place human IgG1 Fc]"}},
  "test_in_all_cases": "glycan array binding signal (z-score within array); higher = stronger binding",
  "conditions_in_all_cases": "glycan notation: IUPAC condensed, linker removed",
  "key": {"[1]": {"molecular_target": "Fuc(a1-2)Gal(b1-3)GlcNAc(b1-2)Man(a1-3)[Fuc(a1-2)Gal(b1-3)GlcNAc(b1-2)Man(a1-6)]Man(b1-4)GlcNAc(b1-4)[Fuc(a1-6)]GlcNAc", "in_short": "(§1)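 Glycan array binding is given as a within-array Z-score, which can be read as non-binding when negative. The arrays, 3228 of them, came from the Consortium for Functional Glycomics database and were retained only where the protein sequence was available. Z-scores were averaged across arrays of the same protein sequence at different concentrations or buffers and across linkers.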"}, "[2]": {"molecular_target": "Fuc(a1-2)Gal(b1-4)GlcNAc(b1-3)GalNAc", "in_short": "as §1"}, "[3]": {"molecular_target": "Fuc(a1-2)[Gal(a1-3)]Gal(b1-3)GlcNAc(b1-6)GalNAc", "in_short": "as §1"}, "[4]": {"molecular_target": "Fuc(a1-2)[Gal(a1-3)]Gal(b1-4)GlcNAc", "in_short": "as §1"}, "[5]": {"molecular_target": "Fuc(a1-2)[Gal(a1-4)]Gal(b1-4)GlcNAc", "in_short": "as §1"}, "[6]": {"molecular_target": "Fuc(a1-2)[GalNAc(a1-3)]Gal(b1-3)GlcNAc(b1-3)GalNAc", "in_short": "as §1"}, "[7]": {"molecular_target": "Fuc(a1-2)[GalNAc(a1-3)]Gal(b1-4)GlcNAc(b1-3)GalNAc", "in_short": "as §1"}, "[8]": {"molecular_target": "Gal(a1-4)Gal(b1-3)GlcNAc(b1-2)Man(a1-3)[Gal(a1-4)Gal(b1-3)GlcNAc(b1-2)Man(a1-6)]Man(b1-4)GlcNAc(b1-4)GlcNAc", "in_short": "as §1"}, "Gal(b1-3)GlcNAc(b1-2)Man": {"molecular_target": "Gal(b1-3)GlcNAc(b1-2)Man", "in_short": "as §1"}, "[9]": {"molecular_target": "Gal(b1-3)GlcNAc(b1-3)Gal(b1-4)Glc", "in_short": "as §1"}, "[10]": {"molecular_target": "Gal(b1-3)GlcNAc(b1-6)[Gal(b1-3)]GalNAc", "in_short": "as §1"}, "Gal(b1-4)Glc6S": {"molecular_target": "Gal(b1-4)Glc6S", "in_short": "as §1"}, "Gal(b1-4)GlcNAc(b1-2)Man": {"molecular_target": "Gal(b1-4)GlcNAc(b1-2)Man", "in_short": "as §1"}, "[11]": {"molecular_target": "Gal(b1-4)GlcNAc(b1-2)Man(a1-3)[Gal(b1-4)GlcNAc(b1-2)Man(a1-6)]Man(b1-4)GlcNAc(b1-4)GlcNAc", "in_short": "as §1"}, "[12]": {"molecular_target": "Gal(b1-4)GlcNAc(b1-2)Man(a1-3)[Gal(b1-4)GlcNAc(b1-2)Man(a1-6)][Gal(b1-4)GlcNAc(b1-4)]Man(b1-4)GlcNAc(b1-4)[Fuc(a1-6)]GlcNAc", "in_short": "as §1"}, "[13]": {"molecular_target": "Gal(b1-4)GlcNAc(b1-2)[Gal(b1-4)GlcNAc(b1-4)]Man(a1-3)[GlcNAc(b1-4)][Gal(b1-4)GlcNAc(b1-2)[Gal(b1-4)GlcNAc(b1-6)]Man(a1-6)]Man(b1-4)GlcNAc(b1-4)GlcNAc", "in_short": "as §1"}, "[14]": {"molecular_target": "Gal(b1-4)GlcNAc(b1-3)Gal(b1-4)GlcNAc(b1-2)Man(a1-3)[Gal(b1-4)GlcNAc(b1-3)Gal(b1-4)GlcNAc(b1-2)Man(a1-6)]Man(b1-4)GlcNAc(b1-4)[Fuc(a1-6)]GlcNAc", "in_short": "as §1"}, "Gal(b1-4)GlcNAc6P": {"molecular_target": "Gal(b1-4)GlcNAc6P", "in_short": "as §1"}, "Gal6S(b1-3)GlcNAc6S": {"molecular_target": "Gal6S(b1-3)GlcNAc6S", "in_short": "as §1"}, "GalNAc(a1-3)Gal": {"molecular_target": "GalNAc(a1-3)Gal", "in_short": "as §1"}, "[15]": {"molecular_target": "GalNAc(a1-3)GalNAc(b1-3)Gal(a1-4)Gal(b1-4)GlcNAc", "in_short": "as §1"}, "[16]": {"molecular_target": "GalNAc(b1-3)Gal(a1-4)Gal(b1-4)GlcNAc(b1-3)Gal(b1-4)Glc", "in_short": "as §1"}, "[17]": {"molecular_target": "GalNAc(b1-4)GlcNAc(b1-2)Man", "in_short": "as §1"}, "GalNAc(b1-4)GlcNAc6S": {"molecular_target": "GalNAc(b1-4)GlcNAc6S", "in_short": "as §1"}, "GalNAc(b1-6)GalNAc": {"molecular_target": "GalNAc(b1-6)GalNAc", "in_short": "as §1"}, "GalNAc6S(b1-4)GlcNAc": {"molecular_target": "GalNAc6S(b1-4)GlcNAc", "in_short": "as §1"}, "[18]": {"molecular_target": "GlcA3S(b1-3)Gal(b1-4)GlcNAc(b1-2)Man", "in_short": "as §1"}, "[19]": {"molecular_target": "GlcA3S(b1-3)Gal(b1-4)GlcNAc(b1-3)Gal(b1-4)Glc", "in_short": "as §1"}, "[20]": {"molecular_target": "GlcNAc(b1-2)[GlcNAc(b1-6)]Man(a1-6)[GlcNAc(b1-2)Man(a1-3)]Man(b1-4)GlcNAc(b1-4)GlcNAc", "in_short": "as §1"}, "GlcNAc(b1-6)GalNAc": {"molecular_target": "GlcNAc(b1-6)GalNAc", "in_short": "as §1"}, "Kdn(a2-3)Gal(b1-3)GlcNAc": {"molecular_target": "Kdn(a2-3)Gal(b1-3)GlcNAc", "in_short": "as §1"}, "[21]": {"molecular_target": "Man(a1-3)[Man(a1-6)]Man(a1-6)[Man(a1-3)]Man(b1-4)GlcNAc(b1-4)GlcNAc", "in_short": "as §1"}, "[22]": {"molecular_target": "Neu5Ac(a2-3)Gal(b1-3)GlcNAc", "in_short": "as §1"}, "[23]": {"molecular_target": "Neu5Ac(a2-3)Gal(b1-4)GlcNAc(b1-2)Man", "in_short": "as §1"}, "[24]": {"molecular_target": "Neu5Ac(a2-3)Gal(b1-4)GlcNAc(b1-2)[Neu5Ac(a2-3)Gal(b1-4)GlcNAc(b1-4)]Man(a1-3)[GlcNAc(b1-4)][Neu5Ac(a2-3)Gal(b1-4)GlcNAc(b1-4)Man(a1-6)]Man(b1-4)GlcNAc(b1-4)GlcNAc", "in_short": "as §1"}, "[25]": {"molecular_target": "Neu5Ac(a2-3)Gal(b1-4)GlcNAc(b1-3)Gal(b1-4)GlcNAc", "in_short": "as §1"}, "[26]": {"molecular_target": "Neu5Ac(a2-3)Gal(b1-4)GlcNAc(b1-3)Gal(b1-4)GlcNAc(b1-3)GalNAc", "in_short": "as §1"}, "[27]": {"molecular_target": "Neu5Ac(a2-3)Gal(b1-4)[Fuc(a1-3)]GlcNAc(b1-3)Gal(b1-4)GlcNAc", "in_short": "as §1"}, "[28]": {"molecular_target": "Neu5Ac(a2-3)[GalNAc(b1-4)]Gal(b1-4)Glc", "in_short": "as §1"}, "[29]": {"molecular_target": "Neu5Ac(a2-3)[GalNAc(b1-4)]Gal(b1-4)GlcNAc", "in_short": "as §1"}, "[30]": {"molecular_target": "Neu5Ac(a2-6)Gal(b1-4)GlcNAc(b1-2)[Neu5Ac(a2-6)Gal(b1-4)GlcNAc(b1-4)]Man(a1-3)[GlcNAc(b1-4)][Neu5Ac(a2-6)Gal(b1-4)GlcNAc(b1-4)Man(a1-6)]Man(b1-4)GlcNAc(b1-4)GlcNAc", "in_short": "as §1"}, "[31]": {"molecular_target": "Neu5Ac(a2-6)Gal(b1-4)GlcNAc(b1-6)[Gal(b1-3)GlcNAc(b1-3)]Gal(b1-4)Glc", "in_short": "as §1"}, "Neu5Gc(a2-6)GalNAc": {"molecular_target": "Neu5Gc(a2-6)GalNAc", "in_short": "as §1"}},
  "note": "This excerpt belongs to a sample that is enriched for the strongest signals.",
  "data": [
    {"binder": "B1", "values": [
      {"measurement": "glycan array binding signal (z-score)", "setting": "[1]", "result": -0.052},
      {"measurement": "glycan array binding signal (z-score)", "setting": "[2]", "result": -0.429},
      {"measurement": "glycan array binding signal (z-score)", "setting": "[3]", "result": 2.9},
      {"measurement": "glycan array binding signal (z-score)", "setting": "[4]", "result": -0.512},
      {"measurement": "glycan array binding signal (z-score)", "setting": "[5]", "result": -0.476},
      {"measurement": "glycan array binding signal (z-score)", "setting": "[6]", "result": 2.82},
      {"measurement": "glycan array binding signal (z-score)", "setting": "[7]", "result": 3.41},
      {"measurement": "glycan array binding signal (z-score)", "setting": "[8]", "result": -0.248},
      {"measurement": "glycan array binding signal (z-score)", "setting": "Gal(b1-3)GlcNAc(b1-2)Man", "result": -0.467},
      {"measurement": "glycan array binding signal (z-score)", "setting": "[9]", "result": -0.482},
      {"measurement": "glycan array binding signal (z-score)", "setting": "[10]", "result": 1.3},
      {"measurement": "glycan array binding signal (z-score)", "setting": "Gal(b1-4)Glc6S", "result": -0.505},
      {"measurement": "glycan array binding signal (z-score)", "setting": "Gal(b1-4)GlcNAc(b1-2)Man", "result": 2.97},
      {"measurement": "glycan array binding signal (z-score)", "setting": "[11]", "result": -0.443},
      {"measurement": "glycan array binding signal (z-score)", "setting": "[12]", "result": -0.444},
      {"measurement": "glycan array binding signal (z-score)", "setting": "[13]", "result": -0.495},
      {"measurement": "glycan array binding signal (z-score)", "setting": "[14]", "result": -0.353},
      {"measurement": "glycan array binding signal (z-score)", "setting": "Gal(b1-4)GlcNAc6P", "result": -0.53},
      {"measurement": "glycan array binding signal (z-score)", "setting": "Gal6S(b1-3)GlcNAc6S", "result": -0.458},
      {"measurement": "glycan array binding signal (z-score)", "setting": "GalNAc(a1-3)Gal", "result": 2.87},
      {"measurement": "glycan array binding signal (z-score)", "setting": "[15]", "result": 2.16},
      {"measurement": "glycan array binding signal (z-score)", "setting": "[16]", "result": 2.68},
      {"measurement": "glycan array binding signal (z-score)", "setting": "[17]", "result": 2.67},
      {"measurement": "glycan array binding signal (z-score)", "setting": "GalNAc(b1-4)GlcNAc6S", "result": 3.13},
      {"measurement": "glycan array binding signal (z-score)", "setting": "GalNAc(b1-6)GalNAc", "result": -0.528},
      {"measurement": "glycan array binding signal (z-score)", "setting": "GalNAc6S(b1-4)GlcNAc", "result": 2.66},
      {"measurement": "glycan array binding signal (z-score)", "setting": "[18]", "result": -0.539},
      {"measurement": "glycan array binding signal (z-score)", "setting": "[19]", "result": -0.485},
      {"measurement": "glycan array binding signal (z-score)", "setting": "[20]", "result": -0.392},
      {"measurement": "glycan array binding signal (z-score)", "setting": "GlcNAc(b1-6)GalNAc", "result": 2.85},
      {"measurement": "glycan array binding signal (z-score)", "setting": "Kdn(a2-3)Gal(b1-3)GlcNAc", "result": -0.53},
      {"measurement": "glycan array binding signal (z-score)", "setting": "[21]", "result": -0.533},
      {"measurement": "glycan array binding signal (z-score)", "setting": "[22]", "result": -0.515},
      {"measurement": "glycan array binding signal (z-score)", "setting": "[23]", "result": 0.495},
      {"measurement": "glycan array binding signal (z-score)", "setting": "[24]", "result": -0.446},
      {"measurement": "glycan array binding signal (z-score)", "setting": "[25]", "result": -0.53},
      {"measurement": "glycan array binding signal (z-score)", "setting": "[26]", "result": -0.48},
      {"measurement": "glycan array binding signal (z-score)", "setting": "[27]", "result": -0.359},
      {"measurement": "glycan array binding signal (z-score)", "setting": "[28]", "result": 2.31},
      {"measurement": "glycan array binding signal (z-score)", "setting": "[29]", "result": 2.07},
      {"measurement": "glycan array binding signal (z-score)", "setting": "[30]", "result": -0.357},
      {"measurement": "glycan array binding signal (z-score)", "setting": "[31]", "result": -0.5},
      {"measurement": "glycan array binding signal (z-score)", "setting": "Neu5Gc(a2-6)GalNAc", "result": 2.78}
    ]}
  ]
}
